{"source": "PubChem BioAssay AID624202", "about": "(National Center for Advancing Translational Sciences (NCATS), 2012)", "note": "Out of some 380,000 compounds screened, about 4,000 (1.1%) were called active. The inconclusive results got no clear call from the source; some entries with a clear call stand among them for comparison. The call rests on the fitted dose curve; in most records, active means well fitted activation curve with a large enough effect; inconclusive means small, poorly fitted or top-dose-only effect; inactive means no such curve, though single readings can be large or run the other way. Where the call is inconclusive, the potency comes from a doubtful curve fit. Potency means the concentration at half of the fitted maximal effect; tags describe the fitted curve by direction and shape.", "data": [{"assay": "qHTS Assay to Identify Small Molecule Activators of BRCA1 Expression; further: nearly all actives have a fitted effect of over 80% in size", "conditions": "MCF7-BRCA1-FFLuc reporter, luminescence, 48 h; activation: at 46.1 µM (top of the series), scaled: vehicle 0%, 10 µM genistein 100% unless noted", "procedure,_shortened": "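First, MCF7-BRCA1-FFLuc cells (2000/well) attach for 2 h; next, compounds are pin-added and incubated 48 h at 37 °C; finally, luciferase reagent is added and luminescence read after 15 min.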", "values": [{"smiles": "COc1ccccc1NC(=O)C(C)OC(=O)CCNS(=O)(=O)c1cccc(C(F)(F)F)c1", "note": "(stereo not drawn)", "activation": "inactive: 0%"}, {"smiles": "COC(=O)/C=C/COc1ccccc1[N+](=O)[O-]", "Potency": "inconclusive: 3.16 µM [activator, partial curve, poor fit]"}, {"smiles": "CCN(CCCNC(=O)c1cc(Nc2ccccc2OC)nc2ccccc12)c1cccc(C)c1", "activation": "inactive: -35.2%"}, {"smiles": "O=C(c1ccccc1)c1cnc(Nc2ccccc2Cl)s1", "Potency": "inconclusive: 1.78 µM [activator, full curve, poor fit]"}, {"smiles": "Cc1ccc(/C=C/C(=O)N2CCc3ccccc3C2)cc1", "Potency": "inconclusive: 22.4 µM [activator, single point]"}, {"smiles": "CCCCCCSc1nsc(NC(C)=O)n1", "Potency": "inconclusive: 7.94 µM [activator, partial curve, poor fit]"}, {"smiles": "Cc1ccc(S(=O)(=O)N(C)C)cc1NC(=S)NC(C)CCCC(C)C", "note": "(stereo not drawn)", "activation": "inactive: -57.5%"}, {"smiles": "COc1cc2c(c(OC)c1OC)-c1ccc(OC)c(=O)cc1C(N)CC2", "note": "(stereo not drawn)", "activation": "inconclusive: -82.6% [activator]"}, {"smiles": "COc1ccc(-c2cc3ncc(-c4ccccc4)c(N)n3n2)cc1", "activation": "inactive: 96.8%"}, {"smiles": "C=CCSc1nn2c(=O)c3ccccc3nc2s1", "Potency": "active: 2.82 µM"}, {"smiles": "N#C/C(=C\\c1ccc(Sc2ccccc2)o1)c1nc2ccccc2[nH]1", "Potency": "inconclusive: 3.16 µM [activator, partial curve, poor fit]"}, {"smiles": "COc1ccc(NC(=O)/C=C/c2ccccc2)cn1", "Potency": "active: 8.91 µM"}, {"smiles": "O=C(c1ccccc1)N1CCC(=O)N1c1ccccc1", "activation": "inactive: -6.81%"}, {"smiles": "CCn1ncc(/C=C/C(=O)c2ccccc2)c1C", "Potency": "active: 11.2 µM"}, {"smiles": "COc1cccc(Cn2cccc(NC(=O)Nc3ccccc3C)c2=O)c1", "activation": "inactive: -29%"}, {"smiles": "Cc1cccn(Cc2c(F)cccc2Cl)c1=O", "activation": "inactive: -2.22%"}, {"smiles": "Cc1c(C(=O)Nc2ccccc2)sc2nc3n(c(=O)c12)CCCCC3", "Potency": "inconclusive: 7.94 µM [activator, partial curve, poor fit]"}, {"smiles": "O=C(NCCC(c1ccccc1)c1ccco1)c1cccs1", "note": "(stereo not drawn)", "Potency": "inconclusive: 10 µM [activator, partial curve, poor fit]"}, {"smiles": "COc1ccc(-c2nc(-c3ccncc3)no2)cc1", "Potency": "inconclusive: 0.631 µM [activator, full curve, poor fit]"}, {"smiles": "N/C(=N\\OC(=O)CCCc1ccccc1)c1ccccc1", "Potency": "inconclusive: 17.8 µM [activator, single point]"}, {"smiles": "O=[N+]([O-])c1ccccc1/C=N/NC1=NCCCCC1", "Potency": "inconclusive: 10 µM [activator, partial curve, poor fit]"}, {"smiles": "COc1ccccc1-c1cnn2c(NCCc3ccccc3)cc(C)nc12", "Potency": "inconclusive: 11.2 µM [activator, partial curve, poor fit]"}, {"smiles": "Cn1c(-c2ccc(F)cc2)cc2onc(-c3ccccc3Cl)c2c1=O", "Potency": "inconclusive: 1.58 µM [activator, full curve, poor fit]"}, {"smiles": "COCCNc1nc(-c2cc3ccccc3o2)cs1", "Potency": "inconclusive: 1 µM [activator, full curve, poor fit]"}, {"smiles": "N/C(=N\\OC(=O)/C=C/c1ccccc1)c1cccnc1", "Potency": "active: 10 µM"}, {"smiles": "COc1ccc2nc(NC(=O)C3CCN(C(=O)c4ccco4)CC3)sc2c1", "Potency": "active: 12.6 µM"}, {"smiles": "Cc1ccc(S(=O)(=O)Nc2cccc(-c3ccc(N4CCCCCC4)nn3)c2)cc1", "Potency": "inconclusive: 8.91 µM [activator, partial curve, poor fit]"}, {"smiles": "Nc1nc(SCc2ccccc2)cc(SCc2ccccc2)n1", "Potency": "inconclusive: 2.51 µM [activator, partial curve, poor fit]"}, {"smiles": "COc1ccc(NC(=O)c2cnc[nH]2)cc1", "activation": "inactive: 0%"}, {"smiles": "O=C(O)c1ccc(N/N=C/C2=Cc3ccccc3OC2)cc1", "Potency": "inconclusive: 0.562 µM [activator, full curve, poor fit]"}, {"smiles": "O=C(NCCSc1ccccc1)c1ccco1", "Potency": "inconclusive: 12.6 µM [activator, partial curve, poor fit]"}, {"smiles": "Cc1ccccc1Cn1ccc(-c2ccc3c(c2)OCO3)n1", "Potency": "inconclusive: 11.2 µM [activator, partial curve, poor fit]"}, {"smiles": "O=C(CN(Cc1cccs1)C(=O)c1csnn1)NC1CCCC1", "activation": "inactive: 0%"}, {"smiles": "Cc1ccc(NC(=O)Nc2cnc3ccccc3c2)cc1", "Potency": "inconclusive: 1.12 µM [activator, full curve, poor fit]"}, {"smiles": "ClC1(Cl)CC1CSc1nc2ccccc2[nH]1", "note": "(stereo not drawn)", "Potency": "inconclusive: 7.94 µM [activator, partial curve, poor fit]"}, {"smiles": "COc1ccc2c(c1OC)C(=O)N(c1cccc(C)c1)C2", "Potency": "inconclusive: 1.12 µM [activator, full curve, poor fit]"}, {"smiles": "O=c1c(N=Nc2ccccc2)c[nH]n1-c1ccccc1", "Potency": "inconclusive: 3.55 µM [activator, full curve, poor fit]"}, {"smiles": "CC1CCN(C(=O)C(C)OC(=O)c2ccc(S(C)(=O)=O)c([N+](=O)[O-])c2)CC1", "note": "(stereo not drawn)", "activation": "inactive: -51.4%"}, {"smiles": "CNc1nc(-c2ccc(Cl)cc2)cs1", "Potency": "inconclusive: 2.82 µM [activator, full curve, poor fit]"}, {"smiles": "Cc1ccc(NC(=O)/C=C/c2cccs2)c([N+](=O)[O-])c1", "Potency": "inconclusive: 0.501 µM [activator, full curve, poor fit]"}, {"smiles": "Cn1c(SCC(=O)c2ccccc2)nnc1-c1ccccn1", "Potency": "active: 11.2 µM"}, {"smiles": "COc1ccc(-c2nnc(-c3ccc(F)cc3)o2)cc1", "Potency": "inconclusive: 2.51 µM [activator, full curve, poor fit]"}, {"smiles": "COc1ccc2oc(C(=O)Nc3nc4ccccc4[nH]3)c(C)c2c1", "Potency": "inconclusive: 1.12 µM [activator, full curve, poor fit]"}, {"smiles": "Cc1c(O[C@@H]2O[C@H](CO)[C@@H](O)[C@H](O)[C@H]2O)ccc2c1oc(=O)c1ccccc12", "Potency": "inconclusive: 14.1 µM [activator, partial curve, poor fit]"}, {"smiles": "Cc1cc(N2CCN(c3ccc(C(F)(F)F)cc3[N+](=O)[O-])CC2)c2ccccc2n1", "activation": "inactive: -54.5%"}, {"smiles": "CN(C(=O)/C=C/c1ccccc1)C1CCCCC1", "Potency": "inconclusive: 7.94 µM [activator, partial curve, poor fit]"}, {"smiles": "O=C(Nc1ccccc1)OCC1CCCO1", "note": "(stereo not drawn)", "Potency": "inconclusive: 12.6 µM [activator, partial curve, poor fit]"}, {"smiles": "COc1ccc(C(=O)/C=C/Nc2ccccn2)cc1", "activation": "inconclusive: -76.5% [activator]"}, {"smiles": "CN(C)c1ccc(N=Nc2ccc(C(=O)O)cc2)cc1", "activation": "inconclusive: -81.9% [activator]"}, {"smiles": "Cc1ccc(-c2nn(-c3ccccc3)cc2C=C2C(=O)CC(C)(C)CC2=O)cc1", "Potency": "active: 6.31 µM"}, {"smiles": "Cc1ccc(C)c(NC(=O)Nc2ccc3c(c2)OCO3)c1", "activation": "inactive: 91.8%"}, {"smiles": "CCOc1cc2ccccc2cc1C(=O)OCC(=O)Nc1ccc(Br)cc1", "activation": "inactive: 18.7%"}, {"smiles": "N#CCCn1c(C2CCCCC2)nc2ccccc21", "activation": "inactive: -1.1%"}, {"smiles": "CSc1cccc(NC(=O)COC(=O)C2CCN(S(=O)(=O)c3ccccc3)CC2)c1", "activation": "inactive: 1.59%"}, {"smiles": "O=C(Nc1ccc(Br)cc1)c1ccccc1Br", "Potency": "active: 1.12 µM"}, {"smiles": "Cc1cc(C)n2nc(-c3sccc3-n3c(C)ccc3C)cc2n1", "Potency": "inconclusive: 15.8 µM [activator, single point]"}, {"smiles": "COc1ccc(NC(=O)N2CCCCCC2)cc1", "Potency": "inconclusive: 15.8 µM [activator, partial curve, poor fit]"}, {"smiles": "O=C(CSc1nnc(-c2ccccc2F)n1C1CC1)Nc1cccnc1Cl", "activation": "inactive: -8.43%"}, {"smiles": "CN(C)c1ccc(C(=O)/C=C/c2ccco2)cc1", "Potency": "inconclusive: 1.58 µM [activator, partial curve, poor fit]"}, {"smiles": "CCCC(=O)Nc1ccc(NC(=O)c2ccco2)c(OC)c1", "Potency": "inconclusive: 11.2 µM [activator, partial curve, poor fit]"}, {"smiles": "COc1ccc(C)cc1NC(=O)CSc1nc(=O)n(Cc2ccccn2)c2c1CCC2", "activation": "inactive: -18.6%"}, {"smiles": "COCCCNC(=O)C[C@H]1C[C@H](C(=O)N2CCCCC2)[C@@]2(C)c3[nH]c4cc(-c5ccco5)ccc4c3CCN2C1=O", "activation": "inactive: -27.4%"}, {"smiles": "CCOC(=O)c1cnc(SCc2ccccc2)nc1N", "Potency": "active: 2.24 µM"}, {"smiles": "c1ccc(-c2ccc(-c3ccncn3)cc2)cc1", "Potency": "inconclusive: 2 µM [activator, full curve, poor fit]"}, {"smiles": "COC(=O)c1oc2ccccc2c1N", "Potency": "inconclusive: 10 µM [activator, partial curve, poor fit]"}, {"smiles": "O=C(Cc1ccc([N+](=O)[O-])cc1)N/N=C/c1ccc([N+](=O)[O-])o1", "activation": "inactive: -81.9%"}, {"smiles": "N#C/C(=C/c1ccc(N2CCOCC2)o1)c1ccc(Cl)cc1", "activation": "inactive: 49.6%"}, {"smiles": "Cc1nc(-c2ccc(Cl)cc2)sc1C1(C)CC(c2ccccc2Br)=NO1", "note": "(stereo not drawn)", "activation": "inactive: -8.04%"}, {"smiles": "C=CCNC(=S)Nc1nc2c(cc1C(=O)OCC)CCCC2", "activation": "inactive: 80.7%"}, {"smiles": "CCN1C=CC(=C2C(=O)c3ccccc3C2=O)C=C1", "activation": "inconclusive: -105% [activator]"}, {"smiles": "c1ccc2c(c1)nc(-c1ccncc1)n2CCNc1nc(CN2CCCCC2)cs1", "activation": "inactive: 4.58%"}, {"smiles": "O=C(Nc1ccc2c(c1)OCCO2)c1cccc(Cl)c1Cl", "Potency": "inconclusive: 1.58 µM [activator, partial curve, poor fit]"}, {"smiles": "O=C(NC(=S)Nc1ccc2oc(-c3cccnc3)nc2c1)c1cccc(Cl)c1", "activation": "inactive: 7.82%"}, {"smiles": "COc1cccc(C(=O)NC(=S)Nc2ccccc2N2CCCC2)c1", "activation": "inactive: -52.1%"}, {"smiles": "COc1ccc(/C=C/c2nnc(NC(=O)C(C)C)s2)cc1", "Potency": "active: 3.98 µM"}, {"smiles": "CN(C)C(=O)COc1ncnc2sc(-c3ccccc3)cc12", "Potency": "inconclusive: 35.5 µM [activator, single point]"}, {"smiles": "OB(O)c1ccc(Cl)s1", "activation": "inactive: 18.3%"}, {"smiles": "CCO[C@H]1OC(C(=O)N2CCN(C)CC2)=C[C@@H](c2ccc(C(F)(F)F)cc2)[C@@H]1CCCO", "Potency": "inconclusive: 3.16 µM [activator, partial curve, poor fit]"}]}]}
